PMC7819943, “Rice protein-binding microarrays: a tool to detect cis-acting elements near promoter regions in rice”
The other results are listed elsewhere or left out.

The sequences below were run against T1, OsWOX13 (Oryza sativa, UniProt Q5QMM3 1-267) (assay: protein-binding microarray (RPBM); PBS, 2% BSA, 51.3 ng/ul salmon testes DNA, 50 uM zinc acetate, 200 nM TF, 25 C, 1 h; high values mean tight binding). Conditions: protein: recombinant; tags: N-terminal polyhistidine and DsRed monomer fusion (pET32a); label: CyDye5-dUTP incorporated in the synthesized complementary strand; 3' TTTTT single-stranded linker to array surface; dsDNA, one strand shown.
T1 sequence: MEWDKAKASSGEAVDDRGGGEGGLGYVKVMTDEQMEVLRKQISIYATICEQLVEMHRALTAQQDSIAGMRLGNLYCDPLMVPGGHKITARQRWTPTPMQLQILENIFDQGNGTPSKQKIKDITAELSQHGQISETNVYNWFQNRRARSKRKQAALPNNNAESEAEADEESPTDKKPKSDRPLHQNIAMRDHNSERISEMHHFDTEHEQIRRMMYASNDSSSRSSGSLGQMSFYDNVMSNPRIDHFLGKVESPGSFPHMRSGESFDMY
Summary of the method: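 Transcription factors were each fused at the N-terminus to a polyhistidine tag plus DsRed and expressed in E. coli BL21-CodonPlus before Ni–NTA purification. Binding to a double-stranded custom Agilent array was carried out with 200 nM protein at 25 °C for 1 h in PBS, 2% BSA, salmon testes DNA and 50 µM zinc acetate. The binding signal is per-feature fluorescence intensity, in arbitrary units, on an Axon 4000B scanner.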

Sequence | binding signal
AAAATATTAGTAAATTAACAATATTACAAAGTATTGTAGGCGGAGTCACCTAGTGCAG | 3700 fluorescence intensity (a.u.)
TTATAATTATTTGTGTTGCAATGTATGTTTTGTTTATATACGGAGTCACCTAGTGCAG | 9980 fluorescence intensity (a.u.)
GCAACTGATAGACTAACTTGTCCGGTCCTGTTTTGGAATCCGGAGTCACCTAGTGCAG | 20700 fluorescence intensity (a.u.)
CTTGACATAAAATACAACTCATCCTTCAAAATATCGTCAACGGAGTCACCTAGTGCAG | 4010 fluorescence intensity (a.u.)
GAGCATGTAATCATATTGTCAAATCATTGACCCCTTGCTTCGGAGTCACCTAGTGCAG | 6030 fluorescence intensity (a.u.)
TCTTGTGATTGTATTTTGATAAATCTGAAGAGCATTATGACGGAGTCACCTAGTGCAG | 22000 fluorescence intensity (a.u.)
TGTCTAGATTTATTAAAATCAATATGAATGTGGAAAATGTCGGAGTCACCTAGTGCAG | 6660 fluorescence intensity (a.u.)
CTTGACTTAACACGTCACCTTATCATGTCACATGTAAACACGGAGTCACCTAGTGCAG | 4510 fluorescence intensity (a.u.)
CTGAAATTGAAGGGATGGGCTGGAGGCTGGAGAGACATCACGGAGTCACCTAGTGCAG | 18400 fluorescence intensity (a.u.)
GAAATGAATAGGTTGACAGAGGCATGAAATGATGCATGACCGGAGTCACCTAGTGCAG | 5000 fluorescence intensity (a.u.)
AACTAATGAAGTGTCTAAACTCTAAACATATGTCACCACCCGGAGTCACCTAGTGCAG | 3780 fluorescence intensity (a.u.)
TTCAATCCAATTAACGTTGGGCCTCATCGGTTATCCAGAACGGAGTCACCTAGTGCAG | 6840 fluorescence intensity (a.u.)
CCAATCAATTTTCATGGAAATAAAATGGATAAGAATCATACGGAGTCACCTAGTGCAG | 14300 fluorescence intensity (a.u.)
GAATGACTGAATCTGATCTGTCAGATTGCCTGATGGTTCTCGGAGTCACCTAGTGCAG | 18600 fluorescence intensity (a.u.)
TTTTGATTTTATTGTCTAGTACCTCTCTTCAACGTATAGCCGGAGTCACCTAGTGCAG | 13700 fluorescence intensity (a.u.)
ATGACGATGATGGTGATGGAGTCGGGTACTGGTGATGGTACGGAGTCACCTAGTGCAG | 3730 fluorescence intensity (a.u.)
TGTATTTACTTTTATATAATTATGATATTATTGCTATAAACGGAGTCACCTAGTGCAG | 3620 fluorescence intensity (a.u.)
TTAAATTTAAAATTTTGTTTGAATGCTTAGTATGTGCATTCGGAGTCACCTAGTGCAG | 27800 fluorescence intensity (a.u.)
CCTAGAGCAAACAATTTGATTATCCATGATGAAATAGTGACGGAGTCACCTAGTGCAG | 3220 fluorescence intensity (a.u.)
ATATATATATATATATATTGTGAGGGGATCTAGTGCCTGGCGGAGTCACCTAGTGCAG | 7110 fluorescence intensity (a.u.)
TATTGATTGACATGGTTAGTGGTATGACATGATTATTTGGCGGAGTCACCTAGTGCAG | 41400 fluorescence intensity (a.u.)

Sequence | binding signal
CGATGACATAACTATCATGTGAGGTCATTTGTAGATTTGGCGGAGTCACCTAGTGCAG | 12200 fluorescence intensity (a.u.)
AGCAGTAATTACGCTAGACACGAACCTTCCGCCTATCTCACGGAGTCACCTAGTGCAG | 19000 fluorescence intensity (a.u.)
AATAATATTAATAGTGTTGACTAGTGTTAAGAGATATGTTCGGAGTCACCTAGTGCAG | 3720 fluorescence intensity (a.u.)
TCGACGAATATATAATTAGTCCCTGTCCCACGTGCCATTTCGGAGTCACCTAGTGCAG | 3920 fluorescence intensity (a.u.)
CAGTATAAGCACGATTGAGATTGATAAAATATCACATGTCCGGAGTCACCTAGTGCAG | 9990 fluorescence intensity (a.u.)
ATTGAAACATATGATTAATTTTAATCAGAATATAATCATGCGGAGTCACCTAGTGCAG | 28200 fluorescence intensity (a.u.)
TCTCAACATGCTTCGTCAGTAATTGATGAAGATGTGCCGGCGGAGTCACCTAGTGCAG | 8760 fluorescence intensity (a.u.)
TATAGTCTACTTAACTAGCTAATTAAGCCATTGCAACGGGCGGAGTCACCTAGTGCAG | 4720 fluorescence intensity (a.u.)
CATGAAGAGAGCAAATTGATTGGGCCGGAAGTCGCTCCGGCGGAGTCACCTAGTGCAG | 29100 fluorescence intensity (a.u.)
GAATTTTGGGTGATTGAATAATGTATGGATGAGGCATATACGGAGTCACCTAGTGCAG | 22400 fluorescence intensity (a.u.)
TTATTAGATTAATCCAAATTATGAGGTGATAATAATTATTCGGAGTCACCTAGTGCAG | 8410 fluorescence intensity (a.u.)
ATCGTCTGATTTGCACCGTGGAGTCAGATCAGATGCCATCCGGAGTCACCTAGTGCAG | 10500 fluorescence intensity (a.u.)
CGCCAATTATATAAGCTGAGCCACACCGCCATAGACCAAGCGGAGTCACCTAGTGCAG | 4700 fluorescence intensity (a.u.)
CTGGTTAATTAGCTACCATAACAGTGCTCTCAGATCTCGACGGAGTCACCTAGTGCAG | 23700 fluorescence intensity (a.u.)
TCTAAATTAATCTTTAGTTCTTGACCGCAAAATATGAAGCCGGAGTCACCTAGTGCAG | 14800 fluorescence intensity (a.u.)
TTTCTATCATTTGATTTATTGTTAAATATAATACTACTACCGGAGTCACCTAGTGCAG | 19500 fluorescence intensity (a.u.)
AATAAATAATTAATGGGCAAACATTTTATGTTTGTATATTCGGAGTCACCTAGTGCAG | 23900 fluorescence intensity (a.u.)
TGGAATAATTAATAGGAGTATTGCTTGTGTTGATGTGTGTCGGAGTCACCTAGTGCAG | 18200 fluorescence intensity (a.u.)
TTTGTTAATTGCATGCCTTGCACACTATTGCAAGAACCTACGGAGTCACCTAGTGCAG | 13200 fluorescence intensity (a.u.)
TATTCATAAATTACTTTTCATTTACAAATATGCCGTTTCGCGGAGTCACCTAGTGCAG | 6830 fluorescence intensity (a.u.)
CTTTCTAATAATTGTCACTATGCGTAGCTTCTTGCAATCCCGGAGTCACCTAGTGCAG | 4300 fluorescence intensity (a.u.)
